# Publication PMC5892938
# The other results are listed elsewhere or left out. The exact form of the protein is not confirmed.
# Target: GST-SBP-ILF3 (Homo sapiens) (UniProt Q12906)
# Assay: targeted RNA Bind-n-Seq
# Conditions: RBNS binding buffer: 25 mM Tris pH 7.5, 150 mM KCl, 3 mM MgCl2, 0.1% Tween, 0.5 mg/mL BSA, 1 mM DTT; 27 nM protein, 750 pM RNA pool; temperature not stated; high values mean tight binding; sequences stand for … in GGGUAAAAGCGAGGUGAA…CGGGACAAGUAUUAUGGG
row,Sequence,binding signal (log2 fold change)
1,UUUUUUUUUUGAGAACGAGACGUUCUUCUA [tttttgagapaired],0.325
2,GUGUGGUGUGUUGGCGUCUAACACACUACA [gtspaired],-0.744
3,UUUUUUUUUUGAGAGCGAAACGCUCUCCUG [tttttgagapaired],0.324
4,UUUUUUUUUUGAGACUGAUUCAGUCUUCUA [tttttgagapaired],-0.307
5,GUGUGUUGUGUUGGUACCUAACACAACGCG [gtspaired],-0.53
6,UUUUUUUUUUGAGACUGUAGCAGUUUCCAG [tttttgagapaired],0.689
7,UUUUUUUUUUGAGACUGCAUCAGUCUCCGG [tttttgagapaired],0.235
8,GUGUGUGGUGUUGGACCCUAACACCGCGCA [gtspaired],-0.141
9,UUUUUUUUUUGAGACCGCUACGGUCUUCUA [tttttgagapaired],0.701
10,GGUGGUUGUGUUGGUACCUAACACAAUCGC [gtspaired],-0.759
11,UUUUUUUUUUGAGAGGGAGUCCCUCUCCAG [tttttgagapaired],0.673
12,UUUUUUUUUUGAGACUGCAUCAGUCUUCUG [tttttgagapaired],0.0595
13,UUUUUUUUUUGAGACCGAAACGGUCUCCUG [tttttgagapaired],0.688
14,UUUUUUUUUUGAGAGCGGGUCGCUCUUCUA [tttttgagapaired],0.564
15,UUUUUUUUUUGAGACGGAUCCCGUCUCCAG [tttttgagapaired],0.76
16,GUGUUGUGUGUUGGUGCCUAACACACAGCG [gtspaired],-0.739
17,UUUUUUUUUUGAGAUGGCUACCAUCUCCUG [tttttgagapaired],0.596
18,UUUUUUUUUUGAGAUGGCGACUAUCUCCAG [tttttgagapaired],0.511
19,UUUUUUUUUUGAGACCGAUCCGGUCUCCAG [tttttgagapaired],0.754
20,UUUUUUUUUUGAGAUGGAUGCCGUCUCCGG [tttttgagapaired],0.595
21,UUUUUUUUUUGAGACCGACUCGGUCUCCGG [tttttgagapaired],0.441
22,GUGUGUGGUGUUGGCCCCUAACACCAUACA [gtspaired],0.0429
23,UUUUUUUUUUGAGAGCGAAACGUUCUUCUA [tttttgagapaired],0.0287
24,GUUGGUGGUGUUGGCCUCUAACACCGCCGA [gtspaired],-0.506
25,UUUUUUUUUUGAGACGGGAUCCGUCUUCUG [tttttgagapaired],0.379
26,UUUUUUUUUUGAGAGGGCACCCCUCUCCUA [tttttgagapaired],0.504

row,Sequence,binding signal (log2 fold change)
1,UUUUUUUUUUGAGACGGUUCCCGUCUCCUG [tttttgagapaired],0.716
2,UUUUUUUUUUGAGAGUGAUCCAUUCUCCAG [tttttgagapaired],-0.023
3,UUUUUUUUUUGAGAGGGCUACCCUUUCCAG [tttttgagapaired],0.499
4,UUUUUUUUUUGAGAGGGCCGCCCUCUCCGG [tttttgagapaired],1.14
5,UUUUUUUUUUGAGAGGGAAACCCUCUUCUA [tttttgagapaired],-0.191
6,GGUGGUGGUGUUGGCCUCUAACACCGCCGC [gtspaired],-0.717
7,UUUUUUUUUUGAGACGGUUCCCGUCUCCUA [tttttgagapaired],0.795
8,GUUGUGUGUGUUGGCUCCUAACACACACGA [gtspaired],-0.0721
9,GUGUGUGGUGUUGGACCCUAACACCAUACG [gtspaired],-0.438
10,UUUUUUUUUUGAGACGGGAGCCGUUUCCUG [tttttgagapaired],0.662
11,UUUUUUUUUUGAGACUGGCACAGUCUCCGG [tttttgagapaired],0.404
12,UUUUUUUUUUGAGACCGGGGCGGUCUCCUG [tttttgagapaired],0.478
13,GGUGUGUGUGUUGGCCUCUAACACACAUAC [gtspaired],-0.521
14,GGUUGGUGUGUUGGAAUCUAACACAUCGAC [gtspaired],-0.606
15,UUUUUUUUUUGAGACGGGGGCCGUCUUCUA [tttttgagapaired],0.806
16,GGUGGUUGUGUUGGAGCCUAACACAACUAC [gtspaired],-0.362
17,UUUUUUUUUUGAGAUGGGUUCCAUCUCCUA [tttttgagapaired],0.121
18,UUUUUUUUUUGAGAGGGGGGCCCUUUCCAG [tttttgagapaired],0.85
19,UUUUUUUUUUGAGAGGGCAUCCCUCUCCGG [tttttgagapaired],0.628
20,UUUUUUUUUUGAGACGGCGACCGUUUCCGG [tttttgagapaired],0.724
21,GUGUGGUGUGUUGGAUUCUAACACAUCACG [gtspaired],-0.855
22,UUUUUUUUUUGAGAGGGGUGCCCUCUCCUG [tttttgagapaired],0.765
23,GUGUGUGGUGUUGGCUUCUAACACCAUACA [gtspaired],-0.117
24,GUGUGUUGUGUUGGAAUCUAACACAGCACA [gtspaired],-0.356
25,UUUUUUUUUUGAGACUGCAUCAGUUUCCAG [tttttgagapaired],0.0115
26,UUUUUUUUUUGAGAGCGGAACGCUCUUCUG [tttttgagapaired],0.151

row,Sequence,binding signal (log2 fold change)
1,UUUUUUUUUUGAGACUGACACAGUUUCCUA [tttttgagapaired],0.144
2,UUUUUUUUUUGAGACGGAUACCGUUUCCUG [tttttgagapaired],0.547
3,GUGUUGUGUGUUGGAGCCUAACACACAGCG [gtspaired],-0.531
4,UUUUUUUUUUGAGAUCGGAUCGAUCUCCAG [tttttgagapaired],0.17
5,UUUUUUUUUUGAGACUGUUUCAGUCUUCUA [tttttgagapaired],-0.114
6,GUGGUGUGUGUUGGAAUCUAACACAUACCG [gtspaired],-0.58
7,GGUUGUUGUGUUGGAGUCUAACACAACGAC [gtspaired],-0.442
8,UUUUUUUUUUGAGACUGCGACAGUUUCCUA [tttttgagapaired],0.55
9,GUGGUGUGUGUUGGUGCCUAACACACAUCA [gtspaired],-0.0369
10,GUGUGUGGUGUUGGUCUCUAACACCACACG [gtspaired],-0.485
11,GUGUGUUGUGUUGGUUCCUAACACAGCGCA [gtspaired],-0.799
12,UUUUUUUUUUGAGAGCGUAUCGCUCUCCGG [tttttgagapaired],0.348
13,GGUGGUUGUGUUGGUCUCUAACACAGCCGC [gtspaired],-0.608
14,UUUUUUUUUUGAGAACGCAACGUUCUCCAG [tttttgagapaired],0.0927
15,GGUGUGUGUGUUGGUAUCUAACACACGCGC [gtspaired],-0.53
16,UUUUUUUUUUGAGAUGGGGUCCAUCUUCUA [tttttgagapaired],0.365
17,UUUUUUUUUUGAGAGGGGCCCCCUCUCCUA [tttttgagapaired],1.19
18,UUUUUUUUUUGAGAUCGAGACGGUCUCCAG [tttttgagapaired],0.303
19,UUUUUUUUUUGAGACUGAGACAGUUUUCUA [tttttgagapaired],0.0917
20,UUUUUUUUUUGAGACUGCAACAGUCUCCUA [tttttgagapaired],0.491
21,UUUUUUUUUUGAGACGGACGCCGUCUCCUG [tttttgagapaired],0.53
22,UUUUUUUUUUGAGAGCGGGCCGUUCUCCUA [tttttgagapaired],0.401
23,UUUUUUUUUUGAGACUGACACAGUUUCCUG [tttttgagapaired],0.364
24,GUGGUGUGUGUUGGUGUCUAACACACGCCG [gtspaired],-0.0868
25,GUUGUGUGUGUUGGCUUCUAACACACACAG [gtspaired],-0.613
26,UUUUUUUUUUGAGAUCGAAGCGAUCUCCUG [tttttgagapaired],0.563

row,Sequence,binding signal (log2 fold change)
1,GUGGUUGGUGUUGGUUCCUAACACCGACCG [gtspaired],-0.362
2,GUGUGUUGUGUUGGUGUCUAACACAGCGCG [gtspaired],-0.647
3,GGUGUUGGUGUUGGCCCCUAACACCGACGC [gtspaired],-0.228
4,UUUUUUUUUUGAGAUCGUCACGAUCUCCUG [tttttgagapaired],0.374
5,GUGUGGUGUGUUGGCCUCUAACACACUACG [gtspaired],-0.587
6,UUUUUUUUUUGAGACCGCUCCGGUCUCCUG [tttttgagapaired],0.766
7,UUCUCUCCUCCUCCUGGGGAGGGGGGGAGA [ctspaired],-0.422
8,GUGGUUGGUGUUGGCAUCUAACACCAAUCA [gtspaired],-0.488
9,UUUUUUUUUUGAGAUCGGAUCGAUCUUCUG [tttttgagapaired],-0.0139
10,UUUUUUUUUUGAGACCGAAUCGGUUUCCUG [tttttgagapaired],0.775
11,UUUUUUUUUUGAGAUGGCAACCAUCUUCUA [tttttgagapaired],0.155
12,UUCCUCUCUCCUCCAGGGGAGGGGGGAGGA [ctspaired],-0.0721
13,UUUUUUUUUUGAGAGGGAGUCCCUCUCCUA [tttttgagapaired],0.579
14,UUUUUUUUUUGAGACGGUGACCGUCUCCGG [tttttgagapaired],0.489
15,UUUUUUUUUUGAGACUGAGGCAGUCUCCUG [tttttgagapaired],0.719
16,UUUUUUUUUUGAGAGGGUAACCCUCUCCUG [tttttgagapaired],0.179
17,UUUUUUUUUUGAGACCGAGGCGGUCUCCGG [tttttgagapaired],0.643
18,UUUUUUUUUUGAGACGGCCACCGUCUCCGG [tttttgagapaired],0.839
19,UUUUUUUUUUGAGAACGAUGCGUUCUUCUA [tttttgagapaired],-0.042
20,UUUUUUUUUUGAGACCGAAUCGGUCUUCUG [tttttgagapaired],0.457
21,GUGUGUGGUGUUGGUCCCUAACACCACAUA [gtspaired],-0.499
22,GUUGGUGGUGUUGGUUCCUAACACCGCCGA [gtspaired],-0.284
23,GUUGUGUGUGUUGGACCCUAACACACACGA [gtspaired],-0.154
24,UUUUUUUUUUGAGAUCGGGUCGAUCUCCUA [tttttgagapaired],0.108
25,UUUUUUUUUUGAGAGCGAUGCGUUCUCCUA [tttttgagapaired],0.393
